# Laboratory results from the supplement of paper PMC11876631.
# Residue numbers refer to the chain shown, from its start. Names may count otherwise. ± gives the standard deviation of the averaged measurements. Laboratory Escherichia coli strains with one amino-acid change in an essential protein, pooled on minimal glucose agar with carbenicillin or gentamicin at twice the control MIC (plus kanamycin and chloramphenicol for the plasmids), 48 h. Fold change of barcode share against drug-free plates; higher = less susceptible. Active = above 20 in both replicates (the paper's putatively resistant). '<' = one read or none on drug, '>' = one read or none on a drug-free plate. Shares are relative, so most strains fall below 1 when a few take over. Listed are strains with at least 15 reads on both drug-free plates, and hits; most hits rest on fewer reference reads. Replicate rank correlation about 0.5. Edits are read from barcodes.
# B1: ribF M51Q (protein)
# chain: MKLIRGIHNLSQAPQEGCVLTIGNFDGVHRGHRALLQGLQEEGRKRNLPVQVMLFEPQPLELFATDKAPARLTRLREKLRYLAECGVDYVLCVRFDRRFAALTAQNFISDLLVKHLRVKFLAVGDDFRFGAGREGDFLLLQKAGMEYGFDITSTQTFCEGGVRISSTAVRQALADDNLALAESLLGHPFAISGRVVHGDELGRTIGFPTANVPLRRQVSPVKGVYAVEVLGLGEKPLPGVANIGTRPTVAGIRQQLEVHLLDVAMDLYGRHIQVVLRKKIRNEQRFASLDELKAQIARDELTAREFFGLTKPA
# B2: ribF L54W (protein)
# chain: B1 chain with Q51M, L54W
# B3: ribF V52W (protein)
# chain: B1 chain with Q51M, V52W
# B4: ribF V52Q (protein)
# chain: B1 chain with Q51M, V52Q
# B5: ribF M53D (protein)
# chain: B1 chain with Q51M, M53D
# B6: ribF M53A (protein)
# chain: B1 chain with Q51M, M53A
# B7: ribF M53Q (protein)
# chain: B1 chain with Q51M, M53Q
# B8: ribF L54A (protein)
# chain: B1 chain with Q51M, L54A
# B9: ribF M53W (protein)
# chain: B1 chain with Q51M, M53W
# B10: ribF V52A (protein)
# chain: B1 chain with Q51M, V52A
# B11: ribF M53P (protein)
# chain: B1 chain with Q51M, M53P
# B12: ribF M51D (protein)
# chain: B1 chain with Q51D
# B13: ribF V52D (protein)
# chain: B1 chain with Q51M, V52D
# B14: ribF V52P (protein)
# chain: B1 chain with Q51M, V52P
# Biological target: Escherichia coli (laboratory strain)
# Test: barcode share on antibiotic plates over drug-free plates; higher = less susceptible
# Details: antibiotic: carbenicillin; 2× MIC (3.1 µg/mL)
# Procedure: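 A pool of E. coli strains, each edited to carry one amino-acid change in an essential protein, was grown for 48 h on minimal glucose agar with or without antibiotic; strain barcodes were sequenced; mean of two replicates.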
row,Protein,fold change of barcode share
1,B1,0.283 ± 0.064
2,B2,0.308 ± 0.089
3,B3,0.484 ± 0.15
4,B4,0.347 ± 0.099
5,B5,1 ± 0.48
6,B6,0.368 ± 0.15
7,B7,0.3 ± 0.022
8,B8,1.3 ± 1.5
9,B9,0.33 ± 0.023
10,B10,0.25 ± 0.12
11,B11,2.32 ± 0.53
12,B12,0.856 ± 0.02
13,B13,0.358 ± 0.024
14,B14,1.14 ± 0.056

# Same assay, conditions: antibiotic: gentamicin; 2× MIC (MIC 0.45 µg/mL)
row,Protein,fold change of barcode share
1,B1,0.0052 ± 0.0042
2,B2,0.111 ± 0.15
3,B3,229 [active]
4,B4,0.0779 ± 0.047
5,B5,12.9 ± 5.8
6,B6,0.00915 ± 0.0043
7,B7,0.0207 ± 0.011
8,B8,0.172 ± 0.23
9,B9,0.0119 ± 0.014
10,B10,0.0253 ± 0.02
11,B11,258 [active]
12,B12,110 ± 140
13,B13,0.105 ± 0.11
14,B14,200 [active]
